Results on 9 substances are retold here after publication PMC2991254.

Protein sequences, listed by entry. Tags and fused reporters are not part of them. Lines headed by an entry give the natural chain unless they say otherwise; changes in a name come on top. Chains listed by the source or under a name are the forms on record and can include a tag or linker.
UniProt P29385: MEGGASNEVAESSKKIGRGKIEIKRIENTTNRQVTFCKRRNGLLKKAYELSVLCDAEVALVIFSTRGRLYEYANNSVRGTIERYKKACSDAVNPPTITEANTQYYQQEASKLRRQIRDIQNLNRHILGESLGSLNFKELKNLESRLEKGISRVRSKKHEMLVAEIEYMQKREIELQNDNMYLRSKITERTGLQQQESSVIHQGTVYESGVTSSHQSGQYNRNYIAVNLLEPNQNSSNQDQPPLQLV
UniProt Q9FIS1: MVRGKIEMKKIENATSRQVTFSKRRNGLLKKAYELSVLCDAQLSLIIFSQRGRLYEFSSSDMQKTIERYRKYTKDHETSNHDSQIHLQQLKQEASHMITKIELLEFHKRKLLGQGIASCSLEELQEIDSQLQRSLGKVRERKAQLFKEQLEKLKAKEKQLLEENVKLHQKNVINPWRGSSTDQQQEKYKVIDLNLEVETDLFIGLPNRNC
UniProt Q9SI38: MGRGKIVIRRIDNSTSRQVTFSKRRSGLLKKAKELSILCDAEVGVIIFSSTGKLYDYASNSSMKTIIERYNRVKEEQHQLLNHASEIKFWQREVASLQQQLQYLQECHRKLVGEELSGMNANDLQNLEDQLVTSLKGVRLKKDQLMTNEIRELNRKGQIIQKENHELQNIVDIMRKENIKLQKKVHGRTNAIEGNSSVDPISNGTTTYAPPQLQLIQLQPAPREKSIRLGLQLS
UniProt Q38838: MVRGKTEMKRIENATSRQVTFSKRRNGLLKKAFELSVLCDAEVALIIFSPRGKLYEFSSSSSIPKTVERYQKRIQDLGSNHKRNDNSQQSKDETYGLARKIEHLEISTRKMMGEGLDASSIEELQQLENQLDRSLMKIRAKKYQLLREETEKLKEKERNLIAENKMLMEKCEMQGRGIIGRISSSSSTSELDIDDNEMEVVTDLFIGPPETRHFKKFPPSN
UniProt Q38840: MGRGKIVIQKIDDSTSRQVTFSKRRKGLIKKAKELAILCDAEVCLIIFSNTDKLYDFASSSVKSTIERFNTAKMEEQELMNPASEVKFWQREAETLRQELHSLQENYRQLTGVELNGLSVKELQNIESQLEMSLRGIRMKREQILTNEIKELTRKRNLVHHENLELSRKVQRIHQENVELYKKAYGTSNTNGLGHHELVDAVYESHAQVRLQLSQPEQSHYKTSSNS
UniProt A2RVQ5: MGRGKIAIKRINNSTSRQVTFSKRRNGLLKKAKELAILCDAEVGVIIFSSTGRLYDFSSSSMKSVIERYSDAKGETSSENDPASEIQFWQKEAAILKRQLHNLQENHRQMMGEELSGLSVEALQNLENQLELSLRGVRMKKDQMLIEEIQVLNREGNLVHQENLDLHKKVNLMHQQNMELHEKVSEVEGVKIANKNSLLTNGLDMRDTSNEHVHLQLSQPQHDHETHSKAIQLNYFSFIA
UniProt Q9FPN7: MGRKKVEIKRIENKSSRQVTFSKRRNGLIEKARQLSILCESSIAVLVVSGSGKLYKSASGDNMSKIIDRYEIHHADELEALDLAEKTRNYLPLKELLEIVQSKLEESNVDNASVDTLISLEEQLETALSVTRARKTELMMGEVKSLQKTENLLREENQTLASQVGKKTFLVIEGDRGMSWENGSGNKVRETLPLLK
UniProt P35631: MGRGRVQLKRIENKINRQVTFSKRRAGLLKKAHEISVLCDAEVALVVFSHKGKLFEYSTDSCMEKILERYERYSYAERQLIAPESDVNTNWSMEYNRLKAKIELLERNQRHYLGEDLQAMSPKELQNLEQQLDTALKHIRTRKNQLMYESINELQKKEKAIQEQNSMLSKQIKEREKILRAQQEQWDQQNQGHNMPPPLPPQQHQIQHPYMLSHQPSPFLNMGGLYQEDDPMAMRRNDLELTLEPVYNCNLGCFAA
UniProt P29384: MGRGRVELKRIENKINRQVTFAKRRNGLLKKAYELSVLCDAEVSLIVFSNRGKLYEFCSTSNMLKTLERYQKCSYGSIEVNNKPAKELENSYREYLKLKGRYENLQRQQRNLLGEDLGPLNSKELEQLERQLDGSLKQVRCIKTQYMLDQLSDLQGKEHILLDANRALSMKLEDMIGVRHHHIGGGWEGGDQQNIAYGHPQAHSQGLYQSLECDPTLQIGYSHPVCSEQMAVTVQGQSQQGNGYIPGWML
UniProt Q38876: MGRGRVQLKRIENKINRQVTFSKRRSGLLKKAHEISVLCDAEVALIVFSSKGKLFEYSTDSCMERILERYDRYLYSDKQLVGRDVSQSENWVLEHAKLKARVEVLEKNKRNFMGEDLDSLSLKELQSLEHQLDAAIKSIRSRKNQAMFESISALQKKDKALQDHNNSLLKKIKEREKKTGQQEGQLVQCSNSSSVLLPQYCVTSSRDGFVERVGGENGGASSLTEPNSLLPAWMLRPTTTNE
UniProt Q39081: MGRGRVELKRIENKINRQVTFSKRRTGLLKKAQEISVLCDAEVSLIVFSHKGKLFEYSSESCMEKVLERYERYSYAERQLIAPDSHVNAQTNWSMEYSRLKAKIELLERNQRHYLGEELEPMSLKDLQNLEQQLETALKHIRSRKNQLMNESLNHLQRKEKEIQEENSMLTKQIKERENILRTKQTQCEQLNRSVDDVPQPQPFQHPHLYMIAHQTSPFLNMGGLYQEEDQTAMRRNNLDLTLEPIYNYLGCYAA
SOC1 MQD62-64SIPK (O64645, form named): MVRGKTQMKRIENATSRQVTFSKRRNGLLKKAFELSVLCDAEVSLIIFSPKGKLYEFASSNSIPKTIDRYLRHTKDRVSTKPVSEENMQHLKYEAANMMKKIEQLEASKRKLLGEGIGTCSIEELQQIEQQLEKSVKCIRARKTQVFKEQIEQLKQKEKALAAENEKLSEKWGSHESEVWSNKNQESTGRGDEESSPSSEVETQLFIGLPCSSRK

Results are given in words; binding and its absence hold for the method and conditions named. Some entries that bind do so weakly or less than the wild type.

Assay in all cases: two-hybrid; matrix-based yeast two-hybrid, GAL4-AD and GAL4-BD fusions (pDEST22, pDEST32), in duplicate, at least two reporter genes; medium lacking Leu, Trp and His with 1 mM 3-amino-1,2,4-triazole, growth scored after 4 days at 20°C
(In general: In a reporter assay the amount or activity of a reporter protein is the signal.)

The target in assay [1] is …OOF2 (Arabidopsis thaliana) (UniProt P29385).
For assay [2], the target named is AGL42 (Arabidopsis thaliana) (UniProt Q9FIS1).
Assay [3] concerns the target ANR1 (Arabidopsis thaliana) (UniProt Q9SI38).
Assay [4] concerns the target AGAMOUS LIKE14 (Arabidopsis thaliana) (UniProt Q38838).
In assay [5] the target is AGL17 (Arabidopsis thaliana) (UniProt Q38840).
Assay [6] has as its target AGL16 (Arabidopsis thaliana) (UniProt A2RVQ5).
Assay [7] deals with MADS … FLOWERING 2 (Arabidopsis thaliana) (UniProt Q9FPN7).
Assay [8] addresses T1, AGL71 (Arabidopsis thaliana) (UniProt Q9LT93).
T1 sequence: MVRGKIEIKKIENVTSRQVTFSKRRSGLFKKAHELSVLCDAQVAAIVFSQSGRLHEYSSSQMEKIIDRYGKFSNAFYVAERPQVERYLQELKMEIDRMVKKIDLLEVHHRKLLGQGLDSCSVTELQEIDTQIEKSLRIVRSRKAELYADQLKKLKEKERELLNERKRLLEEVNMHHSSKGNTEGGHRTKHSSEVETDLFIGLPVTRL

In assay [9] the target is T2, AGL13 (Arabidopsis thaliana) (UniProt Q38837).
T2 sequence: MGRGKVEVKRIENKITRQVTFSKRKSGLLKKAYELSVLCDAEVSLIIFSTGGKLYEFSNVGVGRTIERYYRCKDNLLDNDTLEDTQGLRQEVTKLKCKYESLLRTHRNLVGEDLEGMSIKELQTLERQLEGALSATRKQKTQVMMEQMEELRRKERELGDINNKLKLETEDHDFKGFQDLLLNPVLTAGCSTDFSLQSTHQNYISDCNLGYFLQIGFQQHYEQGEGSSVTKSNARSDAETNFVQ

The target in assay [10] is APETALA1 (Arabidopsis thaliana) (UniProt P35631).
Assay [11] concerns the target SEP2 (Arabidopsis thaliana) (UniProt P29384).
Assay [12] concerns the target FRUITFUL (Arabidopsis thaliana) (UniProt Q38876).

Regarding CAL V66I (from UniProt Q39081 1-255), the binding result is “binds” in assay [1]; “no binding” in assay [2]; “no binding” in assay [3]; “no binding” in assay [4]; “no binding” in [5]; “binds” in [6]. In addition, the binding result in [7] is “no binding”; in assay [8], “no binding”; in [9], “binds”; in assay [10], “binds”; in assay [11], “binds”; in assay [12] it was “binds”.
As to “CAL V66I/N150Y (from UniProt Q39081 1-255)”, the binding result in assay [1], in assay [2], in assay [3], in [4], in assay [5] and in [6] was “no binding” in each case. In addition, the binding entry in assay [7], in [8], in [9], in assay [10], in assay [11] and in assay [12] was “no binding” throughout.
With CAULIFLOWER (from UniProt Q39081 1-255), the binding entry in assay [1], in [2], in [3], in assay [4], in assay [5] and in assay [6] was “no binding” throughout. Further, the binding entry in assay [7], in assay [8], in [9], in [10], in assay [11] and in [12] was “no binding” each time.
Regarding “SOC1 MQD62-64SIPK (from UniProt O64645 1-214)”, the binding entry in assay [1], in [2], in [3], in assay [4], in [5] and in assay [6] was “no binding” in each case. The binding entry in [7], in assay [8], in assay [9], in assay [10], in assay [11] and in [12] was “no binding” throughout.
On to SVP1 C58S (from UniProt Q9FVC1 1-240), for which the binding entry in [1] is listed as “binds”; in assay [2], “binds”; in [3], “no binding”; in assay [4] it was “binds”; in [5] it was “binds”; in assay [6], “binds”. The binding entry is reported as “no binding” in [7]; “no binding” in assay [8]; “no binding” in assay [9]; “binds” in [10]; “binds” in [11]; “binds” in [12].
In the case of “SVP1 C58S/S61R (from UniProt Q9FVC1 1-240)”, the binding entry in [1] was “no binding”; in assay [2], “no binding”; in assay [3], “no binding”; in assay [4] it was “no binding”; in assay [5], “no binding”; in assay [6] it was “binds”. Further, the binding entry in assay [7], in assay [8], in [9], in assay [10], in assay [11] and in assay [12] was “no binding” in each case.
With “SVP1 EFCSSS56-61D (from UniProt Q9FVC1 1-240)”, the binding result in [1], in assay [2], in [3], in assay [4], in assay [5] and in assay [6] was “no binding” each time. Besides, the binding entry in assay [7], in [8], in assay [9], in assay [10], in assay [11] and in [12] was “no binding” throughout.
As for SVP1 S61R (from UniProt Q9FVC1 1-240), the binding result in assay [1], in assay [2], in assay [3], in assay [4], in assay [5] and in assay [6] was “no binding” each time. The binding entry in assay [7] was “no binding”; in [8] it was “no binding”; in [9], “no binding”; in assay [10] it was “binds”; in [11] it was “binds”; in [12], “no binding”.
In the case of “SVP1 SS227-228MF (from UniProt Q9FVC1 1-240)”, the binding result in assay [1], in assay [2], in [3], in assay [4], in assay [5] and in assay [6] was “binds” in each case. In addition, the binding result is “binds” in assay [7]; “no binding” in [8]; “binds” in assay [9]; “binds” in assay [10]; “binds” in [11]; “binds” in assay [12].
